Test results reported in PubChem BioAssay AID180 (DTP/NCI, 2004).
For part of its entries the source gives two or more results. The other results are left out here. The source may hold further records. Values that stand side by side repeat one measurement across runs, samples, wells, individuals or studies.

Test system: BDF1 mice, Adenocarcinoma 755 s.c., tumor weight T/C
Experiment: NCI In Vivo Anticancer Drug Screen. Data for tumor model Adenocarcinoma 755 (subcutaneous) in B6D2F1 (BDF1) mice
Conditions: endpoint: mean tumor weight, higher = larger tumour
Description: The antitumor activity of compounds was measured in mice bearing transplantable tumors. Survival or tumor size were measured and the results are expressed as the measurement made in the treated group (T) divided by the measurement made in the vehicle treated control group (C). The tumor model used in this assay is Adenocarcinoma 755 (subcutaneous) in B6D2F1 (BDF1) mice

## Cn1cnc([N+](=O)[O-])c1Sc1nc(N)nc2nc[nH]c12
dose: 0.5 mg/kg/injection, schedule: Q01DX011 (ip), vehicle: methylcellulose (MC)
  T/C: 17 % of control and 48 % of control

## CC(=O)OC1(C)CC(C)C(=O)C(C(O)CC2CC(=O)NC(=O)C2)C1 (configuration not stated)
dose: 1:1500.0 dilution, schedule: Q01DX006 (ip), vehicle: water
  T/C: 69 % of control and 104 % of control
dose: 1:3000.0 dilution, schedule: Q01DX006 (ip), vehicle: water
  T/C: 79 % of control and 113 % of control
dose: 1:4000.0 dilution, schedule: Q01DX006 (ip), vehicle: water
  T/C: 50 % of control and 107 % of control
dose: 1:10000.0 dilution, schedule: Q01DX006 (ip), vehicle: water
  T/C: 60 % of control, 87 % of control, 100 % of control
dose: 1:50000.0 dilution, schedule: Q01DX006 (ip), vehicle: water
  T/C: 48 % of control, 89 % of control, 95 % of control

## c1ncc2[nH]cnc2n1
dose: 54.13 mg/kg/injection, schedule: Q01DX011 (ip), vehicle: carboxymethylcellulose (CMC)
  T/C: 62 % of control, 108 % of control, 124 % of control
dose: 108.25 mg/kg/injection, schedule: Q01DX011 (ip), vehicle: carboxymethylcellulose (CMC)
  T/C: 58 % of control and 109 % of control

## CC(=O)[C@H]1CC[C@H]2[C@@H]3C[C@H](C)C4=CC(=O)CC[C@]4(C)[C@H]3C(=O)C[C@]12C
dose: 100.0 mg/kg/injection, schedule: Q01DX011 (sc), vehicle: steriod suspending solution
  T/C: 29 % of control and 55 % of control

## CCOC1=C(N2CC2)C(=O)C(OCC)=C(N2CC2)C1=O
dose: 0.63 mg/kg/injection, schedule: Q01DX011 (ip), vehicle: methylcellulose (MC)
  T/C: 34 % of control and 89 % of control
dose: 1.25 mg/kg/injection, schedule: Q01DX011 (ip), vehicle: methylcellulose (MC)
  T/C: 2 % of control and 69 % of control

## ClCCn1cnc2c(SCc3ccccc3Cl)ncnc21
dose: 4.0 mg/kg/injection, schedule: Q01DX011 (ip), vehicle: other
  T/C: 5 % of control and 54 % of control

## CS(=O)(=O)c1nc(N)nc2nc[nH]c12
dose: 15.0 mg/kg/injection, schedule: Q01DX011 (ip), vehicle: carboxymethylcellulose (CMC)
  T/C: 32 % of control and 60 % of control

## C[C@@H]1C[C@H]2[C@@H]3CCC4=CC(=O)C=C[C@]4(C)[C@@]3(F)[C@@H](O)C[C@]2(C)[C@@]1(O)C(=O)CO
dose: 1.75 mg/kg/injection, schedule: Q01DX011 (sc), vehicle: steriod suspending solution
  T/C: 34 % of control, 63 % of control, 77 % of control
dose: 3.5 mg/kg/injection, schedule: Q01DX011 (sc), vehicle: steriod suspending solution
  T/C: 21 % of control, 32 % of control, 55 % of control

## S=c1nc[nH]c2c1ncn2C1CCCC1
dose: 7.5 mg/kg/injection, schedule: Q01DX011 (ip), vehicle: carboxymethylcellulose (CMC)
  T/C: 43 % of control and 92 % of control

## CSc1ncnc2nc[nH]c12
dose: 250.0 mg/kg/injection, schedule: Q01DX001 (ip), vehicle: carboxymethylcellulose (CMC)
  T/C: 25 % of control, 73 % of control, 81 % of control

## NNC(=O)CCC(N)C(=O)O (configuration not stated)
dose: 10.76 mg/kg/injection, schedule: Q01DX011 (ip), vehicle: carboxymethylcellulose (CMC)
  T/C: 73 % of control and 99 % of control
dose: 21.53 mg/kg/injection, schedule: Q01DX011 (ip), vehicle: carboxymethylcellulose (CMC)
  T/C: 74 % of control and 105 % of control

## CC(=O)c1cc(C)[nH]c1C
dose: 29.0 mg/kg/injection, schedule: Q01DX011 (ip), vehicle: methylcellulose (MC)
  T/C: 45 % of control and 73 % of control
dose: 57.5 mg/kg/injection, schedule: Q01DX011 (ip), vehicle: methylcellulose (MC)
  T/C: 50 % of control and 84 % of control

## Cc1ccc(N2CCN(CCCN3CCN(c4ccc(Cl)cc4)CC3)CC2)cc1
dose: 3.1 mg/kg/injection, schedule: Q01DX011 (ip), vehicle: methylcellulose (MC)
  T/C: 26 % of control and 86 % of control
dose: 6.25 mg/kg/injection, schedule: Q01DX011 (ip), vehicle: methylcellulose (MC)
  T/C: 18 % of control, 38 % of control, 81 % of control

## Nc1ncnc2c1cnn2Cc1ccc(Cl)cc1
dose: 19.0 mg/kg/injection, schedule: Q01DX011 (ip), vehicle: carboxymethylcellulose (CMC)
  T/C: 26 % of control and 91 % of control
dose: 37.5 mg/kg/injection, schedule: Q01DX011 (ip), vehicle: carboxymethylcellulose (CMC)
  T/C: 7 % of control and 74 % of control

## [Br][Hg][CH2]C1COC([CH2][Hg][Br])CO1 (configuration not stated)
dose: 25.0 mg/kg/injection, schedule: Q01DX011 (ip), vehicle: carboxymethylcellulose (CMC)
  T/C: 40 % of control and 66 % of control

## CCC1OCCN1C(C)C (configuration not stated)
dose: 100.0 mg/kg/injection, schedule: Q01DX011 (ip), vehicle: other
  T/C: 13 % of control and 102 % of control
